Read-outs that look alike come from different tables or passages of the source.
Legend:
[1] = molecular target: SLC35G3 (Homo sapiens, UniProt Q8N808); assay: Uptake ratio screen, SLC35G3-overexpressing HEK293 over empty vector cells; assay type: cell-based; design: by amplifying the entire gene-of-interest within the HEK293 genome via a long-range PCR
[2] = molecular target: T1, SLC35F4 (Homo sapiens, UniProt A4IF30); assay: Uptake ratio screen, SLC35F4-overexpressing HEK293 over empty vector cells; assay type: cell-based; design: by amplifying the entire gene-of-interest within the HEK293 genome via a long-range PCR; details: 2.5 μM, 2 min
T1 sequence (A4IF30 1-521): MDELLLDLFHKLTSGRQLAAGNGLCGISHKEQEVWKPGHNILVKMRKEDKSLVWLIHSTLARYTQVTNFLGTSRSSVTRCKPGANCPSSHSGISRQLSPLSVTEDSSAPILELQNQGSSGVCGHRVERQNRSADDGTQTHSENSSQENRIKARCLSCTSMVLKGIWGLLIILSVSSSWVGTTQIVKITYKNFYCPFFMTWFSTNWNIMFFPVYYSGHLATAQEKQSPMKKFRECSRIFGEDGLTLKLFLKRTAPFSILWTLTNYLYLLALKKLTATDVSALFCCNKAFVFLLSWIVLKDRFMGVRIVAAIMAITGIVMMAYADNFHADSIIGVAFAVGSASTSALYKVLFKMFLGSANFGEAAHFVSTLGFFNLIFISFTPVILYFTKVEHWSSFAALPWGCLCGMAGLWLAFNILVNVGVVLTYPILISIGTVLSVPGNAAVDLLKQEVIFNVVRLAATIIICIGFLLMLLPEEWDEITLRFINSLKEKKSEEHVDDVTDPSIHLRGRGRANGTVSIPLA
Procedure: Typically discussed substrates of the proton organic-cation antiporter ([14]) are highlighted in dark green in Figure 1.
In preparation for transport experiments, 24-well plates were pre-coated with poly-D-lysine (Sigma-Aldrich) and 300,000 cells were plated per well and incubated for 48 h. Firstly, the 24-well plate was placed on a heating plate at 37 °C, and the cells were washed with 37 °C HBSS^+ buffer (Hank’s balanced salt solution supplemented with 10 mM Hepes and adjusted to pH 7.4; Thermo Fisher Scientific). The substance-of-interest, which was diluted in 37 °C HBSS^+ to a desired concentration, was added to the cells for exactly 2 min. […] For variations in seeded cell numbers between the cell lines, several wells were lysed in RIPA buffer and used for total protein quantification using a bicinchoninic assay ([74]) and bovine serum albumin as calibration.
The intracellular drug concentrations after transport experiments were analyzed by high-performance liquid chromatography coupled to tandem mass spectrometry analysis. […] After separation, the detection of substances was performed with an API 4000 tandem mass spectrometer (AB SCIEX, https://sciex.com/support/software-support/software-downloads), followed by quantification of results with the Analyst software (AB SCIEX, version 1.6.2). […]

[3] = 2.5 μM substrate, 2 min, HEK293

SLC35G3, sequence (Q8N808 whole entry): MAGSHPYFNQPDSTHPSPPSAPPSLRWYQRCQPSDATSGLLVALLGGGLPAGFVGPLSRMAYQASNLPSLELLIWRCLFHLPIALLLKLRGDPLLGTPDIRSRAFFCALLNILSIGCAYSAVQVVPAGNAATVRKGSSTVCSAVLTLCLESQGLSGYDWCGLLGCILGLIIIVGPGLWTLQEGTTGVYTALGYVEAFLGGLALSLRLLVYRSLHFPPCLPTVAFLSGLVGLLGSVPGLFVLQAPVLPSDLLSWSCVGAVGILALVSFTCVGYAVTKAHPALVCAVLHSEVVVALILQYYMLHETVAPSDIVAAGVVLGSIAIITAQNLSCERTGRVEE

`CN(C)CCOC(c1ccccc1)c1ccccc1.Cn1c(=O)c2[nH]c(Cl)nc2n(C)c1=O` [Dimenhydrinate] was tested. Which “Uptake data for SLC35G3, mean value (fold-increase over empty vector control)” value [1, 3] did it give?
Its value is 1.37.

How did the “Uptake data for SLC35G3, mean value (fold-increase over empty vector control)” value [1] turn out when `CN1[C@@H]2C[C@@H](OC(=O)[C@H](CO)c3ccccc3)C[C@H]1[C@@H]1O[C@@H]12` [Scopolamine] was run?
The value was 1.64.

For `O=C(O)COCCN1CCN(C(c2ccccc2)c2ccc(Cl)cc2)CC1` (stereo not shown) [Cetirizine], which “Uptake data for SLC35G3, mean value (fold-increase over empty vector control)” value [1, 3] is on record?
The value was 1.21.

How did the “Uptake data for SLC35G3, mean value (fold-increase over empty vector control)” value [1, 3] turn out when `CCN(CC)CC(=O)Nc1c(C)cccc1C` [Lidocaine] was run?
Its value is 2.48.

For `CN(C)CCOC(c1ccccc1)c1ccccc1` [Diphenhydramine], which “Uptake data for SLC35G3, mean value (fold-increase over empty vector control)” value [1, 3] is on record?
The value was 1.53.

What about the “Uptake by SLC35F4 (in words)” value [2] of the same molecule?
The value was “enhanced cell uptake”.

For `CC(C)[N+]1(C)[C@@H]2CC[C@H]1C[C@@H](OC(=O)C(CO)c1ccccc1)C2` (stereo partly shown) [Ipratropium], which “Uptake data for SLC35G3, mean value (fold-increase over empty vector control)” value [1] is on record?
The value was 1.25.

With `CC(C)NCC(O)COc1ccc(CC(N)=O)cc1` (stereo not shown) [Atenolol] as the molecule, how does the “Uptake data for SLC35G3, mean value (fold-increase over empty vector control)” value [1, 3] read?
Its value is 0.97.

For `CN1CC[C@]23c4c5ccc(O)c4O[C@H]2[C@@H](O)C=C[C@H]3[C@H]1C5` [Morphine], which “Uptake data for SLC35G3, mean value (fold-increase over empty vector control)” value [1] is on record?
The value was 1.20.

How did the “Uptake data for SLC35G3, mean value (fold-increase over empty vector control)” value [1, 3] turn out when `CCCCc1oc2ccccc2c1C(=O)c1cc(I)c(OCCN(CC)CC)c(I)c1` [Amiodaron] was run?
The value was 1.35.
